The full ranking holds about 33,000 sequences; the median of “E-score (-0.5 to 0.5)” is about -0.035, and the highest 2% start at about 0.34. The list shows a part of the results.
Molecular target: T1, Mot3 (UniProt P54785)
T1 sequence: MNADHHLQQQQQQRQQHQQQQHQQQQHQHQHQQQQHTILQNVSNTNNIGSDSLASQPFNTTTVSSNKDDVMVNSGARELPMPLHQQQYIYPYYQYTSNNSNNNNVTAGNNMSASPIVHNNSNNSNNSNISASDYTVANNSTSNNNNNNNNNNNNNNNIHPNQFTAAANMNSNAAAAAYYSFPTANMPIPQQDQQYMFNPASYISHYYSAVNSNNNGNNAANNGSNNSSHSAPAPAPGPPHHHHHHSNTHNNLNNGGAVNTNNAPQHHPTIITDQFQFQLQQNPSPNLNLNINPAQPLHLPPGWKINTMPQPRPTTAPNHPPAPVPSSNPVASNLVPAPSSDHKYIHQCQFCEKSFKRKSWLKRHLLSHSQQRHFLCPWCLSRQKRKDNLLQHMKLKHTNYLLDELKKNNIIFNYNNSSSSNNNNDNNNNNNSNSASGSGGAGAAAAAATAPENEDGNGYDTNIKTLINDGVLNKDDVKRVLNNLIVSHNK
Assay: PBM E-score (8-mer binding enrichment) (E-score (-0.5 to 0.5)); higher = stronger / more preferred TF binding; most listed sequences are background and not binding sites
Conditions: protein concentration: 200 nM; construct: GST-full length
Procedure: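 Universal 'all 10-mer' protein binding microarrays (Agilent AMADID 015681) probed with GST-tagged S. cerevisiae TFs (full-length or DBD) made by in vitro transcription/translation (PURExpress), about 100-200 nM. Bound TF was detected with fluorescent anti-GST. Each ungapped 8-mer (which stands for itself and its reverse complement) is scored by the PBM enrichment score (E-score), a modified Wilcoxon-Mann-Whitney statistic from -0.5 to +0.5, computed with the Universal PBM Analysis Suite. Scale: above 0.35 generally sequence-specific binding.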

Sequence | PBM E-score
ACTACCAC | -0.0746
AATCCGTC | -0.126
CGAAGAAG | 0.0168
ACCCAAGC | -0.261
GAACGGGA | 0.0191
AGGGATTA | 0.0194
AGAAATCC | -0.161
GTACACAC | 0.276
GAGTGGCA | -0.298
AGTCTCAA | -0.169
ACTACCTG | 0.0234
ACAAGGCA | 0.449
CAGCCACG | -0.185
CTTGATGA | 0.0927
CTAAATAC | 0.0705
TGACTAAA | 0.0227
AAAAGGCT | 0.0632
ACTAGGTA | 0.254
CCGACATA | 0.126
TGGGCCCA | -0.254
TAACCAAA | 0.121
GGCGTAAA | 0.146
ACCGTCGA | -0.0212
ATTGAGAA | 0.0935
AGTGGTAA | 0.115

Sequence | PBM E-score
CGTCCATC | -0.286
CGAAGATC | 0.0227
ACCTGTCG | 0.177
CGTCGAAG | -0.0226
CCCCCAAG | -0.16
AGCCGAAC | -0.186
CCAGCACG | -0.147
GACCGCAA | -0.146
GCAACCTA | 0.121
GCGGTTCA | 0.0528
CATCTCTA | -0.0508
AAGAACCG | 0.0999
ACATTCCT | -0.105
ACGAACAG | -0.0228
CGCCGATC | -0.23
TGGGACAA | 0.0777
GCCAAAAA | -0.0326
ATAAACAC | 0.259
CACAAACC | -0.0656
ATGCACGA | -0.0737
AACTACAT | 0.336
ACTTCTAT | 0.0312
CCTCCAGG | 0.124
CTCAGGAC | -0.249
ACATGGAG | 0.189

Sequence | PBM E-score
ACAAGTGT | 0.109
ATAATTAA | 0.227
AGCATCAC | -0.184
GAGCTCCA | -0.156
CGCCCTGA | -0.197
CTGGTATC | -0.165
GCATGAAA | -0.0572
GCACCGCC | -0.168
ACGATCTG | -0.094
AGCAGGGC | -0.0277
GATCGGTA | -0.128
AAGACATT | 0.0444
GCAGCAGA | -0.144
ATCTGTGG | -0.213
GCGTTACA | 0.162
ATTCCGGA | -0.151
GCAAAAAA | 0.203
GAAAAAGA | 0.0781
GCCCTGTA | 0.0831
AGTACTTC | 0.013
ATAATCCG | -0.0686
GTTTTCTA | 0.137
CGTATCCC | -0.105
AGAACCAG | -0.14
GGTTCAAA | -0.0312

Sequence | PBM E-score
ATTAAGTG | 0.081
CGCACCAG | -0.0361
CAGGAATC | -0.0987
TATAATGA | -0.00965
ATTTCATC | -0.0147
GCGCCACC | -0.185
GCGCGGGA | -0.228
CAGACGCC | -0.0483
ATTTGCAG | 0.0042
GCGTTCCA | -0.118
AGGCGAAG | -0.118
CCGCCCAA | -0.194
AGTCGTAG | -0.174
GCGTTTCC | 0.0476
GCATATTA | 0.115
CCTTGGCC | -0.135
CAACGCTC | -0.067
CAGAGGAG | -0.273
ATTGGCCG | -0.176
CCTTTCAC | 0.0961
AGCGTGAT | -0.153
GTACGTCA | 0.0225
TACAGGAA | 0.43
CTACCTTA | 0.0561
ATGATTCG | -0.0643

Sequence | PBM E-score
GAGTTCTA | 0.0214
AACACCTT | 0.258
GACGAGGC | -0.0659
TAGCCACA | -0.0656
TCTTCCAA | 0.00517
GACGTTCC | 0.0787
GAATACTA | 0.182
ATAGGTTA | 0.153
AGTAGACT | -0.00298
CTTGTTGA | 0.262
AATTCTAA | 0.0387
ACATTGCT | 0.207
TGGGGAAA | -0.146
CGGTCCTA | -0.284
CAGCATAA | 0.0887
GGATTCAA | -0.157
CCTAAATC | 0.101
CATAAAAA | 0.116
AAACATCG | 0.00325
AATCGGCT | -0.111
GCCCATCC | -0.144
CATTGTGC | 0.0988
TACTAACA | 0.238
CGGCGGCC | -0.248
CAAAGTTC | -0.0273

Sequence | PBM E-score
CTTATTAA | -0.00143
CAGGGCAG | -0.00935
AGTATTCG | -0.0676
CTAGGTTC | -0.0266
GGTACACA | 0.271
CACAGATG | -0.0112
AATCCGTG | 0.0623
CAGGAGAA | -0.315
CGTGCGGA | -0.137
ACCCAGAC | -0.17
ACATTCTC | -0.0819
ACACCGCG | 0.157
CCTGTGAG | 0.136
CCTTATCA | 0.22
GAACCGGC | -0.157
ACGTTCGC | -0.0916
AGAACGGC | -0.127
CCATGAAC | -0.185
TATGGACA | 0.0217
AATCAACG | 0.0839
ACTGGCTC | -0.192
AGTCGTGC | 0.0377
AGGTCCCC | -0.216
CAGGTGCG | 0.0191
ACTCAATC | -0.0617

Sequence | PBM E-score
TAGTTAGA | -0.0788
ATGTTAGC | 0.207
AGTTGCAC | -0.06
GATTCAGC | -0.174
ACATGTTG | 0.368
CCAAATCC | -0.244
ACATTTCC | 0.193
GCGAGGGA | -0.298
CTATCCGA | -0.136
CAGACTGG | -0.0997
CCACATCC | -0.242
TCCTATAA | 0.172
TGAAGAAA | 0.0144
GAAGACAA | -0.0357
CAATAATG | 0.065
GCCTAGAA | 0.141
ATGAACGC | 0.145
GTCGAAAC | 0.0124
CAAAAATA | 0.01
GGTTGTAC | -0.00579
CTACAGGC | 0.354
CACTTCGA | -0.0174
GCCACGCC | -0.189
ATAGCGTC | -0.011
CAAACGGG | -0.231

Sequence | PBM E-score
AGGGGTGA | -0.257
ACTATCGA | -0.0372
ACTTTGGC | -0.192
ATAAAACG | 0.0166
CTCGCTGA | -0.0573
CCGCAGCG | -0.276
GAACCGTA | -0.249
GCGTAAAC | 0.306
TGTTCCAA | 0.083
CAAAGGTA | 0.212
GGCACAAC | 0.309
GTTCCTAA | 0.431
CCAACTCA | -0.125
ACATTGAC | 0.235
GCATGAGA | 0.032
CGAGCTCC | 0.0363
CCTCACAC | -0.116
ACTACTGC | -0.122
CAGAACCC | -0.0803
CTGCCCTC | -0.0391
GACTAGTC | -0.258
AGTATACC | -0.0499
GTACCCAA | 0.0155
CACATCTA | 0.191
AGAACCGA | -0.0525

Sequence | PBM E-score
GCGACCAC | -0.292
CAGGGAAA | -0.0721
AAGCTGGC | -0.141
AGGTTCGG | -0.235
GATATGGA | -0.0716
AGGCGACA | -0.148
ATACATTA | 0.27
ATCCGTGG | -0.202
AATCCGAA | -0.227
GCATTTCA | -0.0517
AGACCGGC | -0.0434
AATGTCCC | -0.134
CTCTTAAA | 0.217
CTTATATC | 0.0252
AGGATAGA | -0.0589
CCTAATCA | 0.159
AGATCCCC | -0.201
AGCCCATG | -0.163
ATGGCATA | -0.0737
